Assay results taken from US11427549B2, “Pyrimidinyloxy benzo-fused compounds as herbicides” (FMC Corporation, priority 2017, dated 2022).

Each molecule was assayed on sedge, umbrella (small-flower umbrella sedge, Cyperus difformis) (assay: Test B flooded paddy test, sedge, umbrella). Conditions: Cyperus difformis, read-out: Plant response rating, Sedge, Umbrella (0 to 100 scale, 0 is no effect, 100 is complete control).
Molecule `O=C1OC(CCCC(F)(F)F)c2c(Oc3ncc(Cl)cn3)cccc21` (stereo not shown) [Compound 1, 4-[(5-Chloro-2-pyrimidinyl)oxy]-3-(4,4,4-trifluorobutyl)-1(3H)-isobenzofuranone] has a pest or weed control at 250 g/ha of 70%. With `O=C1O[C@@H](CCCC(F)(F)F)c2c(Oc3ncc(Cl)cn3)cccc21` [Compound 2, (3S)-4-[(5-Chloro-2-pyrimidinyl)oxy]-3-(4,4,4-trifluorobutyl)-1-(3H)-isobenzofuranone] the pest or weed control at 250 g/ha was 0%. `O=C1O[C@H](CCCC(F)(F)F)c2c(Oc3ncc(Cl)cn3)cccc21` [Compound 3, (3R)-4-[(5-Chloro-2-pyrimidinyl)oxy]-3-(4,4,4-trifluorobutyl)-1-(3H)-isobenzofuranone] was tested, and the pest or weed control at 250 g/ha was 100%. For `O=C1OC(CCC(F)(F)F)c2c(Oc3ncc(Cl)cn3)cccc21` (stereo not shown) [Compound 4, 4-[(5-Chloro-2-pyrimidinyl)oxy]-3-(3,3,3-trifluoropropyl)-1(3H)-isobenzofuranone], the pest or weed control at 250 g/ha was 100%. With `O=C1COC(CCCC(F)(F)F)c2c(Oc3ncc(Cl)cn3)cccc21` (stereo not shown) [Compound 5, 8-[(5-Chloro-2-pyrimidinyl)oxy]-1-(4,4,4-trifluorobutyl)-1H-2-benzopyran-4(3H)-one] the pest or weed control at 250 g/ha was 70%. In the case of `FC(F)(F)CCCC1OCc2cccc(Oc3ncc(Cl)cn3)c21` (stereo not shown) [Compound 7, 5-chloro-2-[[1,3-dihydro-3-(4,4,4-trifluorobutyl)-4-isobenzofuranyl]oxy]-pyrimidine], the pest or weed control at 250 g/ha was 100%. Work on `FC(F)(F)CCC1OCc2cccc(Oc3ncc(Cl)cn3)c21` (stereo not shown) [Compound 8, 5-Chloro-2-[[1,3-dihydro-3-(3,3,3-trifluoropropyl)-4-isobenzofuranyl]oxy]pyrimidine] yielded a pest or weed control at 250 g/ha of 100%. In the case of `FC(F)(F)CCCC1CCc2cccc(Oc3ncc(Cl)cn3)c21` (stereo not shown) [Compound 9, 5-Chloro-2-[[2,3-dihydro-3-(4,4,4-trifluorobutyl)-1H-inden-4-yl]oxy]pyrimidine], the pest or weed control at 250 g/ha was 100%. With `OC1CC(CCCC(F)(F)F)c2c(Oc3ncc(Cl)cn3)cccc21` (stereo not shown) [Compound 10, 4-[(5-Chloro-2-pyrimidinyl)oxy]-2,3-dihydro-3-(4,4,4-trifluorobutyl)-1H-inden-1-ol] the pest or weed control at 250 g/ha was 95%. Work on `CN1C(=O)c2cccc(Oc3ncc(Cl)cn3)c2C1CCCC(F)(F)F` (stereo not shown) [Compound 12, 4-[(5-Chloro-2-pyrimidinyl)oxy]-2,3-dihydro-2-methyl-3-(4,4,4-trifluorobutyl)-1H-isoindol-1-one] yielded a pest or weed control at 250 g/ha of 0%. For `O=C1NC(CCCC(F)(F)F)c2c(Oc3ncc(Cl)cn3)cccc21` (stereo not shown) [Compound 13, 4-[(5-Chloro-2-pyrimidinyl)oxy]-2,3-dihydro-3-(4,4,4-trifluorobutyl)-1H-isoindol-1-one], the pest or weed control at 250 g/ha was 0%. `OC1(CCC(F)(F)F)CCc2cccc(Oc3ncc(Cl)cn3)c21` (stereo not shown) [Compound 14, 7-[(5-Chloro-2-pyrimidinyl)oxy]-2,3-dihydro-1-(3,3,3-trifluoropropyl)-1H-inden-1-ol] gave a pest or weed control at 250 g/ha of 50%. Molecule `O=C1Cc2cccc(Oc3ncc(Cl)cn3)c2C(CCCC(F)(F)F)O1` (stereo not shown) [Compound 17, 8-[(5-Chloro-2-pyrimidinyl)oxy]-1,4-dihydro-1-(4,4,4-trifluorobutyl)-3H-2-benzopyran-3-one] has a pest or weed control at 250 g/ha of 0%. Work on `O=C1O[C@@H](CCC(F)(F)F)c2c(Oc3ncc(Cl)cn3)cccc21` [Compound 18, (3S)-4-[(5-Chloro-2-pyrimidinyl)oxy]-3-(3,3,3-trifluoropropyl)-1(3H)-isobenzofuranone] yielded a pest or weed control at 250 g/ha of 0%. In the case of `O=C1O[C@H](CCC(F)(F)F)c2c(Oc3ncc(Cl)cn3)cccc21` [Compound 19, (3R)-4-[(5-Chloro-2-pyrimidinyl)oxy]-3-(3,3,3-trifluoropropyl)-1(3H)-isobenzofuranone], the pest or weed control at 250 g/ha was 100%. Molecule `FC(F)(F)CC[C@H]1OCc2cccc(Oc3ncc(Cl)cn3)c21` [Compound 20, 5-Chloro-2-[[(3R)-1,3-dihydro-3-(3,3,3-trifluoropropyl)-4-isobenzofuranyl]oxy]-pyrimidine] has a pest or weed control at 250 g/ha of 100%. In the case of `FC(F)(F)CC[C@@H]1OCc2cccc(Oc3ncc(Cl)cn3)c21` [Compound 21, 5-Chloro-2-[[(3S)-1,3-dihydro-3-(3,3,3-trifluoropropyl)-4-isobenzofuranyl]oxy]-pyrimidine], the pest or weed control at 250 g/ha was 0%. For `O=C1c2cccc(Oc3ncc(Cl)cn3)c2C1CCCC(F)(F)F` (stereo not shown) [Compound 22, 2-[(5-Chloro-2-pyrimidinyl)oxy]-8-(4,4,4-trifluorobutyl)bicyclo[4.2.0]octa-1,3,5-trien-7-one], the pest or weed control at 250 g/ha was 90%. With `O=C1OC(CCC(F)(F)F)Cc2c(Oc3ncc(Cl)cn3)cccc21` (stereo not shown) [Compound 23, 5-[(5-Chloro-2-pyrimidinyl)oxy]-3,4-dihydro-3-(3,3,3-trifluoropropyl)-1H-2-benzopyran-1-one] the pest or weed control at 250 g/ha was 0%. Work on `O=C1c2cccc(Oc3ncc(Cl)cn3)c2C1CCC(F)(F)F` (stereo not shown) [Compound 24, 2-[(5-Chloro-2-pyrimidinyl)oxy]-8-(3,3,3-trifluoropropyl)bicyclo[4.2.0]octa-1,3,5-trien-7-one] yielded a pest or weed control at 250 g/ha of 80%. `O=C1OCC(CCC(F)(F)F)c2c(Oc3ncc(Cl)cn3)cccc21` (stereo not shown) [Compound 25, 5-[(5-Chloro-2-pyrimidinyl)oxy]-3,4-dihydro-4-(3,3,3-trifluoropropyl)-1H-2-benzopyran-1-one] was tested, and the pest or weed control at 250 g/ha was 0%. With `FC(F)(F)CCCC1OCCc2cccc(Oc3ncc(Cl)cn3)c21` (stereo not shown) [Compound 27, 5-Chloro-2-[[3,4-dihydro-1-(4,4,4-trifluorobutyl)-1H-2-benzopyran-8-yl]oxy]pyrimidine] the pest or weed control at 250 g/ha was 95%. Molecule `O=C1Cc2cccc(Oc3ncc(Cl)cn3)c2C(CCC(F)(F)F)O1` (stereo not shown) [Compound 28, 8-[(5-Chloro-2-pyrimidinyl)oxy]-1,4-dihydro-1-(3,3,3-trifluoropropyl)-3H-2-benzopyran-3-one] has a pest or weed control at 250 g/ha of 0%. `O=C1OCc2cccc(Oc3ncc(Cl)cn3)c2C1CCC(F)(F)F` (stereo not shown) [Compound 29, 5-[(5-Chloro-2-pyrimidinyl)oxy]-1,4-dihydro-4-(3,3,3-trifluoropropyl)-3H-2-benzopyran-3-one] gave a pest or weed control at 250 g/ha of 0%. For `O=C1CCC(CCCC(F)(F)F)c2c(Oc3ncc(Cl)cn3)cccc21` (stereo not shown) [Compound 30, 5-[(5-Chloro-2-pyrimidinyl)oxy]-3,4-dihydro-4-(4,4,4-trifluorobutyl)-1(2H)-naphthalenone], the pest or weed control at 250 g/ha was 95%. `O=C1OC(CCCCC(F)(F)F)Cc2c(Oc3ncc(Cl)cn3)cccc21` (stereo not shown) [Compound 31, 5-[(5-Chloro-2-pyrimidinyl)oxy]-3,4-dihydro-3-(5,5,5-trifluoropentyl)-1H-2-benzopyran-1-one] showed a pest or weed control at 250 g/ha of 0%. In the case of `FC(F)(F)CCC1OCCc2cccc(Oc3ncc(Cl)cn3)c21` (stereo not shown) [Compound 32, 5-Chloro-2-[[3,4-dihydro-1-(3,3,3-trifluoropropyl)-1H-2-benzopyran-8-yl]oxy]pyrimidine], the pest or weed control at 250 g/ha was 98%. `FC(F)(F)CCCC1COc2cccc(Oc3ncc(Cl)cn3)c21` (stereo not shown) [Compound 33, 5-Chloro-2-[[2,3-dihydro-3-(4,4,4-trifluorobutyl)-4-benzofuranyl]oxy]pyrimidine] showed a pest or weed control at 250 g/ha of 75%. For `O=C1OCc2cccc(Oc3ncc(Cl)cn3)c2C1CCCCC(F)(F)F` (stereo not shown) [Compound 34, 5-[(5-Chloro-2-pyrimidinyl)oxy]-1,4-dihydro-4-(5,5,5-trifluoropentyl)-3H-2-benzopyran-3-one], the pest or weed control at 250 g/ha was 0%. With `CCCC1OC(=O)Cc2cccc(Oc3ncc(Cl)cn3)c21` (stereo not shown) [Compound 35, 8-[(5-Chloro-2-pyrimidinyl)oxy]-1,4-dihydro-1-propyl-3H-2-benzopyran-3-one] the pest or weed control at 250 g/ha was 0%. For `FC(F)(F)CCC1COc2cccc(Oc3ncc(Cl)cn3)c21` (stereo not shown) [Compound 36, 5-Chloro-2-[[2,3-dihydro-3-(3,3,3-trifluoropropyl)-4-benzofuranyl]oxy]pyrimidine], the pest or weed control at 250 g/ha was 20%.

Same assay, conditions: Flood, 250 g ai/ha, applied to paddy water, 2-leaf stage, visually evaluated after 13 to 15 days
For “5-Chloro-2-[[1-oxido-3-(4,4,4-trifluorobutyl)-3H-2,1-benzoxathiol-4-yl]oxy]pyrimidine [Compound 15]”, the “Plant response rating, Sedge, Umbrella (0 to 100 scale, 0 is no effect, 100 is complete control)” value was 0. For `O=C1CC(CCCC(F)(F)F)c2c(Oc3ncc(Cl)cn3)cccc21` (stereo not shown) [Compound 6, 4-[(5-Chloropyrimidin-2-pyrimidinyl)oxy]-2,3-dihydro-3-(4,4,4-trifluorobutyl)-1H-inden-1-one], the “Plant response rating, Sedge, Umbrella (0 to 100 scale, 0 is no effect, 100 is complete control)” value was 100. `O=C1OCC(CCCC(F)(F)F)c2c(Oc3ncc(Cl)cn3)cccc21` (stereo not shown) [Compound 16, 5-[(5-Chloro-2-pyrimidinyl)oxy]-3,4-dihydro-4-(4,4,4,-trifluorobutyl)-1H-2benzopyran-1-one] was tested, and the “Plant response rating, Sedge, Umbrella (0 to 100 scale, 0 is no effect, 100 is complete control)” value was 90.
